One may read the Kd as the concentration at which binding is half-saturated. A low value points to tighter binding. Usually koff stands for the rate constant with which the complex falls apart. Lower therefore signals a long-lived complex. Usually kon stands for a measure of how fast the partners come together.

Experimental findings from paper PMC10715591, “EspB and HtpG interact with the type III-A CRISPR/Cas system of Mycobacterium tuberculosis” (Frontiers in Molecular Biosciences, 2023) are described below.

The assay addresses T1, MtbCsm1 (Mycobacterium tuberculosis, UniProt P71629 1-809).
T1 construct: also called Cas10; MtbMBP-csm1
T1 sequence: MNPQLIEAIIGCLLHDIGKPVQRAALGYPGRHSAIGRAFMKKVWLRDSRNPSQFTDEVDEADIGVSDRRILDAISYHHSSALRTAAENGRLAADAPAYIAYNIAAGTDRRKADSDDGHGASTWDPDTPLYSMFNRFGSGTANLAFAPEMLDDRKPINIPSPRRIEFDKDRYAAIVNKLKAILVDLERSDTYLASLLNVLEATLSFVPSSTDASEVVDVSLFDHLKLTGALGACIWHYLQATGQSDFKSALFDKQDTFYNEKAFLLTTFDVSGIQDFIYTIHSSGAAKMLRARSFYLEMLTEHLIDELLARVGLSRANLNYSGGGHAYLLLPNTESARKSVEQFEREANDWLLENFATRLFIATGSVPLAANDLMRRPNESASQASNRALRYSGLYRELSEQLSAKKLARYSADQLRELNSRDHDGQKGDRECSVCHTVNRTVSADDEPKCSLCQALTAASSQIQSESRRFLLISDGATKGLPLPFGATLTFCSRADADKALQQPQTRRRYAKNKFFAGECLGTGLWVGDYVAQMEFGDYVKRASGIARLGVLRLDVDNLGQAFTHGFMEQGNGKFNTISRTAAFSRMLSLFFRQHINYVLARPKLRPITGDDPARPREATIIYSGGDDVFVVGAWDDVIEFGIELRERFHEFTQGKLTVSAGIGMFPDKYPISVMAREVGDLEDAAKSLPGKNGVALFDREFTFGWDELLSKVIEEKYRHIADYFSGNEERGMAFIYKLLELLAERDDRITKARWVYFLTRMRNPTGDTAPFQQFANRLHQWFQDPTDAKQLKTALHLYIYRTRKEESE
Nature of the assay: SPR; Biacore 8K, 25°C; EspB covalently immobilised on a CM5 chip; analytes injected at 25-3,200 nM, 30 uL/min for 2 min; global fit to a 1:1 mass transport model. The note with it: both partners purified. On the technique in general: In SPR one partner is held on a chip, and binding of the other changes the refractive index at the surface.

B1: ESX-1 secretion-associated protein EspB (natural protein)
chain: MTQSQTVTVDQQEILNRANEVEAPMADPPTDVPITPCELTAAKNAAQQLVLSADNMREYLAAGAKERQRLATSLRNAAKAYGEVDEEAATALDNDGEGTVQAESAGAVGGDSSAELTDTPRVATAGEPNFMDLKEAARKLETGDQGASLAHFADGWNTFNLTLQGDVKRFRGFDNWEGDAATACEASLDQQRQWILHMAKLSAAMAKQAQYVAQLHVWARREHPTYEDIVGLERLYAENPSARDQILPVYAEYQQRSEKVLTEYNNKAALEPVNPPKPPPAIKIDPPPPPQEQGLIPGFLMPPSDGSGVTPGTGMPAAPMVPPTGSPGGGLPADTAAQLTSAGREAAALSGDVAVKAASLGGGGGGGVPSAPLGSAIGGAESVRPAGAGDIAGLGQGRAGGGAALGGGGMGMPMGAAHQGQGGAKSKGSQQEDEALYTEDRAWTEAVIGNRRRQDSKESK
notes: also called Esx-1 secreted protein B
With B1, the affinity, expressed as Kd, was 16.7 nM; the koff came out at 0.000792 s⁻¹; the kon was determined as 47300 M⁻¹ s⁻¹.
